Common to all, as to assay: Primary Screen for Target Class Profiling of Small Molecule Inhibitors of Methyltransferases
Assay [1] concerns the target Glycine N-methyltransferase (Homo sapiens) (UniProt Q14749). To be noted: purified enzyme, MTase-Glo SAH luminescence; measured here: GNMT inhibition; at 40 µM; stronger effect = lower value. In a few lines: (§1)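 Each enzyme was reacted with SAM and its substrate, with compounds tested once at 40 uM; SAH formed was read by MTase-Glo luminescence.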
In assay [2] the target is Guanidinoacetate N-methyltransferase (Homo sapiens) (UniProt Q14353). The settings on record: purified enzyme, MTase-Glo SAH luminescence; measured here: GAMT inhibition; at 40 µM; stronger effect = lower value. In a few lines: as §1
The target in assay [3] is Histamine N-methyltransferase (Homo sapiens) (UniProt P50135). To be noted: purified enzyme, MTase-Glo SAH luminescence; measured here: HNMT inhibition; at 40 µM; stronger effect = lower value. In a few lines:
as §1

For assay [4], the target named is Nicotinamide N-methyltransferase (Homo sapiens) (UniProt P40261). The settings on record: purified enzyme, MTase-Glo SAH luminescence; measured here: NNMT inhibition; at 40 µM; stronger effect = lower value. In a few lines: as §1
For assay [5], the target named is Phenylethanolamine N-methyltransferase (Homo sapiens) (UniProt P11086). To be noted: purified enzyme, MTase-Glo SAH luminescence; measured here: PNMT inhibition; at 40 µM; stronger effect = lower value. The method, boiled down:
as §1

The list shows a part of the results. The main result of the screen is listed elsewhere. These columns were measured beside it and carry no call.
% is scaled to controls: 0 for no effect and ±100 for the full control effect.

With `N#CCCN`, the activity change, negative = inhibition in assay [1] is -4.81%; in assay [2], 6.96%; in assay [3], -1.14%; in assay [4], -2.56%; in assay [5], 8.04%.
On to `O=C(Nc1cccc2c1CCCC2)N1Cc2ccccc2-n2cccc2C1c1cccs1` (stereo not given), for which the activity change, negative = inhibition was 1.31% in assay [1]; 4.14% in assay [2]; -3.92% in assay [3]; -5.35% in assay [4]; 1.8% in assay [5].
On the same counts, the results for `C[C@@H](CN1CCC2(CC1)C(=O)NCN2c1cccc(F)c1)NC(=O)c1ccc(Br)cc1` are -6.38%, 11.4%, -3.26%, -15.8% and -2.24%.
On the same counts, the results for `C[C@H]1CCC[C@H](O)CCC/C=C/c2cc(O)cc(O)c2C(=O)O1` are -94.3%, -95.9%, -93.7%, -97.6% and -98.1%.
With `C[C@H]1CN(CC[C@H](O)C2CCCCC2)CC[C@@]1(C)c1cccc(O)c1`, the activity change, negative = inhibition in assay [1] is -5.03%; in assay [2], -1.51%; in assay [3] it was -46.3%; in assay [4], -12%; in assay [5], -7.3%.
On the same counts, the results for `CCc1ccc(NC(=O)N2Cc3ccccc3-n3cccc3C2c2ccc(OC)cc2)cc1` (stereo not given) are 8.15%, 7.87%, 1.82%, -0.259% and 1.83%.
For `CC(C)NC(=O)N1Cc2ccccc2-n2cccc2C1c1ccc(Cl)cc1` (stereo not given), in that order: -6.5%, 3.35%, -1.43%, -15.2% and 6.58%.
With `CCC1c2cccn2-c2ccccc2CN1C(=O)Nc1ccc(Br)c(C)c1` (stereo not given), the activity change, negative = inhibition in assay [1] is -0.155%; in assay [2], 1.15%; in assay [3], 0.28%; in assay [4], -4.34%; in assay [5] it was 0.245%.
On the same counts, the results for `O=C(Nc1nccs1)[C@H]1CN2CC[C@H]1C[C@@H]2Cn1cc(C2(O)CCCCC2)nn1` are -2.15%, -2.44%, -1.18%, -3.99% and -2.57%.
On the same counts, the results for `COCCCNC(=O)N1Cc2ccccc2-n2cccc2C1c1ccc(Cl)cc1` (stereo not given) are -2.57%, 4.09%, 0.403%, -10.3% and 1.57%.
For `COc1ccc(C2c3cccn3-c3ccccc3CN2C(=O)NC(C)C)cc1OC` (stereo not given), in that order: 7.05%, 0%, -3.77%, 2.16% and 5.48%.
Turning to `NC(=O)CN1CCCC1=O`, the activity change, negative = inhibition in assay [1] is -5.64%; in assay [2], 1.86%; in assay [3], -0.763%; in assay [4], -2.72%; in assay [5], 6.42%.
For `CN[C@H]1[C@H](O)[C@H](O[C@@H]2[C@@H](O)[C@H](O[C@H]3O[C@H]([C@H](C)O)[C@@H](O)[C@H](O)[C@H]3N)[C@@H](N)C[C@H]2N)OC[C@@]1(C)O`, in that order: 3.71%, 3.27%, 6.09%, -7.48% and 1.66%.
On the same counts, the results for `C=C(C)[C@H]1O[C@H]2CC[C@@]3(C)[C@@](O)(CC[C@H]4[C@@H]5OC(C)(C)[C@H]6C[C@@H]7C(=C)Cc8c(Cl)cc9[nH]c(c5c9c8[C@@]76O)[C@@]43C)[C@]23O[C@@H]3[C@H]1O` are 5.57%, 10.8%, 8.42%, -2.01% and 3.23%.
On the same counts, the results for `CCOc1ccc(C2c3cccn3-c3ccccc3CN2C(=O)Nc2ccccc2)cc1` (stereo not given) are -4.82%, -0.719%, -4.85%, -6.45% and -2.23%.
For the compound `Cc1ccc(NC(=O)N2Cc3ccccc3-n3cccc3C2C)c(C)c1` (stereo not given), the activity change, negative = inhibition in assay [1] is 6.93%; in assay [2], 0%; in assay [3], 2.77%; in assay [4], 0.421%; in assay [5] it was 4.68%.
On the same counts, the results for `COc1cccc(CN2CCCCCCNC(=O)[C@@H]3CCC[C@@H]32)n1` are -6.78%, -3.02%, -12.5%, -6.85% and -1.68%.
On the same counts, the results for `CCC1NC(=O)C2C(Cl)C(Cl)CN2C(=O)C(C(C)O)NC(=O)CC(c2ccccc2)NC(=O)C(CO)NC1=O` (stereo not given) are 5.59%, 3.45%, 11.3%, -8.76% and 4.61%.
For `Cc1ccc(NC(=O)N2Cc3ccccc3-n3cccc3C2C)cc1C` (stereo not given), in that order: 7.69%, 1.01%, 10.8%, 5.61% and 7.51%.
For the compound `CCC1c2cccn2-c2ccccc2CN1C(=O)Nc1ccccc1C(F)(F)F` (stereo not given), the activity change, negative = inhibition is -9.63% in assay [1]; 1.11% in assay [2]; -4.44% in assay [3]; -6.88% in assay [4]; -1.2% in assay [5].
On the same counts, the results for `CCCNC(=O)N1Cc2ccccc2-n2cccc2C1c1ccc(CC)cc1` (stereo not given) are 9.27%, 3.84%, 4.88%, -6.68% and 4.68%.
Consider `COc1ccc(C2c3cccn3-c3ccccc3CN2C(=O)CCC(=O)NC2CCCCC2)cc1` (stereo not given), for which the activity change, negative = inhibition in assay [1] was -5.71%; in assay [2], 4.51%; in assay [3] it was -2.27%; in assay [4], -3.77%; in assay [5], -2.94%.
Regarding `COC[C@H]1C[C@@H](NCc2cn(C)c3ccccc23)[C@H](O)[C@@H]1O`, the activity change, negative = inhibition was -4.17% in assay [1]; -9.89% in assay [2]; -3.05% in assay [3]; -14.8% in assay [4]; -14.9% in assay [5].
Consider `O=C(Nc1cc(F)ccc1F)N1Cc2ccccc2-n2cccc2C1c1cc(F)cc(F)c1` (stereo not given), for which the activity change, negative = inhibition stood at 11.5% in assay [1]; 0.079% in assay [2]; 6.95% in assay [3]; 3.86% in assay [4]; 8.07% in assay [5].
For `C[C@@H]1O[C@@H](OC2CCC3(C=O)C(CCC4C3CCC3(C)C(C5=CC(=O)OC5)C(O)CC43O)C2)[C@H](O)[C@H](O)[C@H]1O[C@@H]1O[C@H](CO)[C@@H](O)[C@H](O)[C@H]1O` (stereo not given in full), the activity change, negative = inhibition in assay [1] was 0%; in assay [2], 8.06%; in assay [3], 6.89%; in assay [4], -4.89%; in assay [5], 5.32%.
Turning to `COc1ccc(NC(=O)N2Cc3ccccc3-n3cccc3C2c2cccc(C)c2)cc1OC` (stereo not given), the activity change, negative = inhibition in assay [1] is 6.48%; in assay [2] it was 0%; in assay [3], -0.172%; in assay [4], -1.98%; in assay [5] it was 4.1%.
On the same counts, the results for `Cc1ncc2c(n1)C[C@@H]1CC[C@H]2N1C(=O)C1(c2ccccc2)CC1` are -1.56%, -4.1%, -0.366%, -6.84% and 1.2%.
For the compound `CCCCCCCCCCCCCC(=O)O[C@@H]1[C@@H](C)[C@@]2(O)[C@@H](C=C(CO)C[C@@]3(O)C(=O)C(C)=C[C@@H]23)C2C(C)(C)[C@@]21OC(C)=O` (stereo not given in full), the activity change, negative = inhibition in assay [1] is -6.39%; in assay [2] it was 0.463%; in assay [3] it was -1.8%; in assay [4], -12.4%; in assay [5] it was 1.88%.
On the same counts, the results for `COc1ccccc1-c1cc([C@H]2CN3CC[C@H]2C[C@@H]3CNS(=O)(=O)c2ccccc2)n(C)n1` are -7.19%, -1.29%, -4.48%, -9.83% and -1.95%.

Values taken from PubChem BioAssay AID1745853 (National Center for Advancing Translational Sciences (NCATS), 2022).
